Test results: PMC4336329 (PLoS ONE, 2015)
Out of some 310,000 compounds screened, about 14,000 (4.5%) showed an effect of 50% or more. Effects have a minus sign here. Some of the results follow.
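Also: peak tail current of the secondary pulse compared with the same well before compound.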

Each compound was assayed against human ether-à-go-go-related gene (hERG) potassium channel (human, UniProt Q12809) (assay: primary screen, population patch clamp on CHO cells stably expressing hERG).
Sequence of human ether-à-go-go-related gene (hERG) potassium channel (Q12809 whole entry, looked up): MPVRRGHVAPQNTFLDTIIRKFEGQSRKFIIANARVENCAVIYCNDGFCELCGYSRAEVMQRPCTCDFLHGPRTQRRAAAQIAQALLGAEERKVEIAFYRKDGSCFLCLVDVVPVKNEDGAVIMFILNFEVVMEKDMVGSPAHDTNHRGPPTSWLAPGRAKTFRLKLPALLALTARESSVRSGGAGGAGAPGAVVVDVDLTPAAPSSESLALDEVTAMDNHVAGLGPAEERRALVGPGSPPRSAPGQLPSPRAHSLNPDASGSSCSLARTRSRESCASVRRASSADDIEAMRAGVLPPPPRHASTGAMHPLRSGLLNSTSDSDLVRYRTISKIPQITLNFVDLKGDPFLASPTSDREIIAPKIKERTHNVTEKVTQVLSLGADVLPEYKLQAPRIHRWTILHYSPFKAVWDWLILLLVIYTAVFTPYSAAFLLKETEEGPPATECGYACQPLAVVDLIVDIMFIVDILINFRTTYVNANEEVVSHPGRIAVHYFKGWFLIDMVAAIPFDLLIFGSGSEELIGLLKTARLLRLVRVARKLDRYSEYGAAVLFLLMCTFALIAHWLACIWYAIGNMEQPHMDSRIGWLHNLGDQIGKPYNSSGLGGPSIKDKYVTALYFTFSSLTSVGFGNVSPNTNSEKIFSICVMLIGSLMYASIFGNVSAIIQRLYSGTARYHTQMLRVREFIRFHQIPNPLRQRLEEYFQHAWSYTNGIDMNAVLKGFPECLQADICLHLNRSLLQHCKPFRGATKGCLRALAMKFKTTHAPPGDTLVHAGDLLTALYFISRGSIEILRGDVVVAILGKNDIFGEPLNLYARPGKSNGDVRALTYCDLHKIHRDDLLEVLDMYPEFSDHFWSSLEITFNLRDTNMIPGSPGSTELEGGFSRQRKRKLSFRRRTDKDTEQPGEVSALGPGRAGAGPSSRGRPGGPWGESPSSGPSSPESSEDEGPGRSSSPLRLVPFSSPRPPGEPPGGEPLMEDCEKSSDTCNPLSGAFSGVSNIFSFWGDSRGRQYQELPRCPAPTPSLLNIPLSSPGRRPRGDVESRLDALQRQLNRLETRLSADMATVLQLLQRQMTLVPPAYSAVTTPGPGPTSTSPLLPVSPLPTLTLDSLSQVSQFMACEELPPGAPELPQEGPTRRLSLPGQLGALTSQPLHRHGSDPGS
For `O=C(N/C(=C/c1cccc([N+](=O)[O-])c1)C(=O)N1CCCCC1)c1ccco1`, the “hERG current change (%, negative = inhibition) at 10uM” value was -2.24%.
In the case of `Cc1ccc(NC(=O)CSc2nc3[nH]ncc3c(=O)[nH]2)c(C)c1`, the “hERG current change (%, negative = inhibition) at 10uM” value is reported as 10.6%.
For `OCCCn1c(CCNc2nc(-c3ccc(F)cc3)cs2)nc2cc(C(F)(F)F)ccc21`, the “hERG current change (%, negative = inhibition) at 10uM” value was -32.3%.
For `O=C(CCn1c(=O)oc2ccccc21)NCCCN1CCOCC1`, the “hERG current change (%, negative = inhibition) at 10uM” value was 16.9%.
For `O=C(CNC(=O)c1cccs1)N/N=C/c1c(F)cccc1Cl`, the “hERG current change (%, negative = inhibition) at 10uM” value was 20.3%.
In the case of `CC(C)CN1CCC(=O)N([C@H](CSc2ccccc2)Cc2ccccc2)CC1`, the “hERG current change (%, negative = inhibition) at 10uM” value is reported as -67.9%.
`Cc1sc2nc(-c3ccc(Br)cc3)oc(=O)c2c1C` was tested, and the “hERG current change (%, negative = inhibition) at 10uM” value was 13.3%.
For `C=CCn1c(CCc2cc(C(C)(C)C)c(O)c(C(C)(C)C)c2)n[nH]c1=S`, the “hERG current change (%, negative = inhibition) at 10uM” value was 17.3%.
For `CC1CCN(c2nc(Cl)nc(Nc3ccc([N+](=O)[O-])cc3)n2)CC1`, the “hERG current change (%, negative = inhibition) at 10uM” value was 9.49%.
`CC(=O)Nc1ccc(NC(=O)CC(NC(=O)c2ccccc2)c2ccccc2)cc1` (stereo not shown) was tested, and the “hERG current change (%, negative = inhibition) at 10uM” value was 17.4%.
`Cc1ccc(NC(=O)CCN2CCN(C)CC2)cc1.Cl` was tested, and the “hERG current change (%, negative = inhibition) at 10uM” value was 10.6%.
With `Cn1c(=O)c2ncn(CC(=O)NCCC3=CCCCC3)c2n(C)c1=O` the “hERG current change (%, negative = inhibition) at 10uM” value was -0.718%.
For `CC12CC(c3ccccc3O1)C(C(=O)N1CCOCC1)C(=O)N2` (stereo not shown), the “hERG current change (%, negative = inhibition) at 10uM” value was 0.629%.
With `C=CCn1c(=O)c2ccccc2n2c(SCC(=O)Nc3sc(C(=O)N(CC)CC)c(C)c3C(=O)OCC)nnc12` the “hERG current change (%, negative = inhibition) at 10uM” value was -52.3%.
`O=C(CN1CCN(S(=O)(=O)c2ccccc2)CC1)NCc1ccccc1` was tested, and the “hERG current change (%, negative = inhibition) at 10uM” value was 8.36%.
`CCCOc1nc2c(c(=O)n(C)c(=O)n2C)n1CCC` was tested, and the “hERG current change (%, negative = inhibition) at 10uM” value was 5.48%.
`CN(C)S(=O)(=O)c1ccc(N2CCCC2)c(C(=O)NNC(=O)c2ccc(Br)cc2)c1` was tested, and the “hERG current change (%, negative = inhibition) at 10uM” value was -26.5%.
`O=S(=O)(Cc1ccc(Cl)cc1)c1ncc(CO)n1Cc1ccccc1` was tested, and the “hERG current change (%, negative = inhibition) at 10uM” value was -5.69%.
With `Oc1ccc(/C=N/n2cc(-c3ccccc3)[nH]c2=S)cc1` the “hERG current change (%, negative = inhibition) at 10uM” value was 11%.
For `CCCCCCNc1c([N+](=O)[O-])c(=O)sc2ccccc12`, the “hERG current change (%, negative = inhibition) at 10uM” value was 14%.
`Cc1ccc(S(=O)(=O)N2CCCC(C(=O)NCc3ccco3)C2)cc1Cl` (stereo not shown) was tested, and the “hERG current change (%, negative = inhibition) at 10uM” value was -1.38%.
For `Cc1c(Cl)cccc1NC(=O)CCN1CCOCC1`, the “hERG current change (%, negative = inhibition) at 10uM” value was 27.5%.
In the case of `C/C=C\C=C\C(=O)N1CC2(CC(c3cccc(NC(=O)CC(c4ccccc4)c4ccccc4)c3)=NO2)C[C@H]1C(N)=O` (stereo partly shown), the “hERG current change (%, negative = inhibition) at 10uM” value is reported as 0.883%.
For `C#CCOCCOCCOCCNc1nc(N2CCOCC2)nc(N2CCN(C(=O)CCCCCCCCCCNC(=O)Cn3cc(CCCCCN)nn3)CC2)n1`, the “hERG current change (%, negative = inhibition) at 10uM” value was 8.83%.
In the case of `Cc1ccc(NS(=O)(=O)c2ccc(NS(=O)(=O)c3cccs3)cc2)cc1`, the “hERG current change (%, negative = inhibition) at 10uM” value is reported as -4.38%.
`O=c1[nH]c(O)c(N=Nc2ccc(SC(F)F)cc2)c(=O)[nH]1` was tested, and the “hERG current change (%, negative = inhibition) at 10uM” value was -11.2%.
`Cc1cc(C)c2oc(C(=O)NCc3ccccc3)cc(=O)c2c1` was tested, and the “hERG current change (%, negative = inhibition) at 10uM” value was 18.3%.
With `COCCCN1C(=O)C(=O)/C(=C(/O)c2ccc(OC(C)C)c(C)c2)C1c1ccncc1` (stereo not shown) the “hERG current change (%, negative = inhibition) at 10uM” value was 5.5%.
`COc1ccc(Cc2nc3ccc(C(=O)N(C)C(C)c4nccs4)cc3o2)cc1` (stereo not shown) was tested, and the “hERG current change (%, negative = inhibition) at 10uM” value was -1.6%.
With `CCOC(=O)N1CCN(C(=O)c2ccc3c(Cl)c4c(nc3c2)CCCC4)CC1` the “hERG current change (%, negative = inhibition) at 10uM” value was -25.1%.
With `O=C(N=Nc1c(O)[nH]c2ccc(Br)cc12)c1ccccc1-n1cccc1` the “hERG current change (%, negative = inhibition) at 10uM” value was -13.7%.
For `COc1ccc(NC(=O)N2CCN(c3nc4ccccc4n3C(C)C)CC2)cc1`, the “hERG current change (%, negative = inhibition) at 10uM” value was -12%.
In the case of `Cn1c(O)c(C=Nc2cccc(C(F)(F)F)c2)c(=O)n(C)c1=O`, the “hERG current change (%, negative = inhibition) at 10uM” value is reported as -4.28%.
`CCOc1ccc(C(=O)NC(C(=O)NCC(c2cccs2)N(C)C)C(C)C)cc1` (stereo not shown) was tested, and the “hERG current change (%, negative = inhibition) at 10uM” value was -19.8%.
For `CC(OC(=O)C1=Cc2ccccc2OC1)C(=O)NC(C)(C)C` (stereo not shown), the “hERG current change (%, negative = inhibition) at 10uM” value was 32.4%.
`O=C(NCCCn1ccnc1)/C(=C/c1cccnc1)NC(=O)c1ccco1` was tested, and the “hERG current change (%, negative = inhibition) at 10uM” value was 4.25%.
With `S=c1[nH]nc(-c2cc(-c3ccco3)[nH]n2)n1-c1ccccc1` the “hERG current change (%, negative = inhibition) at 10uM” value was 12.3%.
For `O=S(=O)(NCc1ccccn1)c1ccccn1`, the “hERG current change (%, negative = inhibition) at 10uM” value was 5.09%.
`C/C(=N\Nc1cccc([N+](=O)[O-])c1)c1ccccc1O` was tested, and the “hERG current change (%, negative = inhibition) at 10uM” value was 12.6%.
`CCOc1ccccc1NC(=O)c1ccc(S(=O)(=O)N(C)c2ccccc2)cc1` was tested, and the “hERG current change (%, negative = inhibition) at 10uM” value was 0.368%.
In the case of `C=CCSc1nnc(C)n1-c1ccc(Cl)cc1`, the “hERG current change (%, negative = inhibition) at 10uM” value is reported as 2.53%.
With `O=C(CCS(=O)(=O)c1cccc2nonc12)NCCc1ccccc1` the “hERG current change (%, negative = inhibition) at 10uM” value was -16.7%.
In the case of `Cc1c(C=Nc2ccc(S(=O)(=O)CCO)cc2)c(O)[nH]c(=O)c1C#N`, the “hERG current change (%, negative = inhibition) at 10uM” value is reported as 18.9%.
With `Cc1ccc(-n2nc3c(=O)n(CCCC(=O)N4CCCCC4)nc(C)c3c2C)cc1` the “hERG current change (%, negative = inhibition) at 10uM” value was -10.3%.
With `Cc1ccc(NC(=S)Nc2ccc(S(=O)(=O)Nc3ncccn3)cc2)c(C)c1` the “hERG current change (%, negative = inhibition) at 10uM” value was 4.23%.
For `CCCN1CCc2c(sc(NC(=O)Cc3ccc(F)cc3)c2C(N)=O)C1.Cl`, the “hERG current change (%, negative = inhibition) at 10uM” value was -38.3%.
For `COc1ccc([N+](=O)[O-])c(OC)c1C(=O)NC(=O)Nc1c(F)cc(F)cc1F`, the “hERG current change (%, negative = inhibition) at 10uM” value was 10.1%.
In the case of `c1cncc(CNC2=NCCC2)c1`, the “hERG current change (%, negative = inhibition) at 10uM” value is reported as 16.2%.
`NS(=O)(=O)c1ccc(CCNC(=O)COC(=O)C2CCCN2C(=O)c2cccs2)cc1` (stereo not shown) was tested, and the “hERG current change (%, negative = inhibition) at 10uM” value was 6.4%.
`CC(=O)c1cccc(N=C2C(=O)Nc3ccccc32)c1` was tested, and the “hERG current change (%, negative = inhibition) at 10uM” value was -4.18%.
`COC(=O)Cn1c(=O)cnc2ccccc21` was tested, and the “hERG current change (%, negative = inhibition) at 10uM” value was -2.96%.
`C/C(CC(=O)Nc1ccc(Cl)c(C(F)(F)F)c1)=N\NC(=O)c1ccccc1O` was tested, and the “hERG current change (%, negative = inhibition) at 10uM” value was -14.4%.
In the case of `Cc1ccc(NC(=O)CSc2nncn2N)cc1C`, the “hERG current change (%, negative = inhibition) at 10uM” value is reported as 10.6%.
With `Cc1cc(C)n(S(=O)(=O)c2ccc3ccccc3c2)n1` the “hERG current change (%, negative = inhibition) at 10uM” value was -10.3%.
For `Cc1ccc(C(=O)Nc2cc(-c3ccn[nH]3)c(C)n(N)c2=O)cc1`, the “hERG current change (%, negative = inhibition) at 10uM” value was 8.42%.
